Assay results taken from PubChem BioAssay AID2147 (National Center for Advancing Translational Sciences (NCATS), 2009).
The campaign covered roughly 230,000 compounds. About 3,600 (1.6%) were called active. The inconclusive results got no clear call from the source; some entries with a clear call stand among them for comparison. Calls follow the shape of the dose curve; as a rule, active = well fitted inhibition curve with a large enough effect (not every such curve was filed as active); inconclusive = small, poorly fitted or top-dose-only effect, or another doubt; inactive = no such curve, though single readings can be large or run the other way. Where the call is inconclusive, the potency comes from a doubtful curve fit.

molecular target: Lysine-specific demethylase 4E (Homo sapiens) (UniProt B2RXH2); experiment: qHTS Assay for Inhibitors of Human Jumonji Domain Containing 2E (JMJD2E); conditions: JMJD2E catalytic domain, FDH-coupled NADH fluorescence (FDH is formaldehyde dehydrogenase); series mostly up to 57.1 µM
UniProt B2RXH2, sequence (B2RXH2 whole entry, looked up, the tested form may be a part): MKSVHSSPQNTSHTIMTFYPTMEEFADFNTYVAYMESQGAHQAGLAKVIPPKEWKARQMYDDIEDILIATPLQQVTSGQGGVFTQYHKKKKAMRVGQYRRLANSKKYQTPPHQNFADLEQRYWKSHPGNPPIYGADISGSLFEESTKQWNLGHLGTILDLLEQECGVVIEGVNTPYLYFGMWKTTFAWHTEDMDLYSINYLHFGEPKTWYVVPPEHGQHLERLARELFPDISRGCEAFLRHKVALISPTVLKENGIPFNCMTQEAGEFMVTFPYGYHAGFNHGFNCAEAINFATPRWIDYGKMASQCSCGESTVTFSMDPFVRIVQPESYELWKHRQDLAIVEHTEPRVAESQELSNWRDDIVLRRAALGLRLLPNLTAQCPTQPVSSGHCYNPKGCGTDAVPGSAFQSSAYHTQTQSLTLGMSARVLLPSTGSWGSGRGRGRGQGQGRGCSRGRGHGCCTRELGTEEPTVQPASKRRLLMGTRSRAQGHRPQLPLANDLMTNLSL
Also: nearly all actives have a fitted effect of over 50% in size.
Potency is read from the fitted curve at half-maximal effect; tags tell the direction and shape of the fitted curve.

Row | Structure (SMILES) | Potency
1 | Cc1ccc(S(=O)(=O)NNC(=O)c2sccc2-n2cccc2)cc1 | inactive
2 | COC(=O)CSc1[nH]c2ccccc2c1[N+](=O)[O-] | inactive
3 | COc1ccc(N(Cc2cc3cccc(C)c3[nH]c2=O)S(C)(=O)=O)cc1 | inconclusive: 28.2 µM [inhibitor, single point]
4 | O=S(=O)(NCc1ccccc1)c1ccc(Br)c2nsnc12 | inconclusive: 20 µM [inhibitor, single point]
5 | O=C1NC(NS(=O)(=O)c2ccccc2)(C(F)(F)F)C(=O)N1Cc1cccnc1 (stereo unspecified) | inconclusive: 31.6 µM [inhibitor, partial curve]
6 | COCCNC(=S)Nc1ccc2nc(N3CCCC3)cc(C)c2c1 | inconclusive: 35.5 µM [inhibitor, single point]
7 | COC(=O)c1ccc(C(NC(=O)OCc2ccccc2)/C(=C/[C@@H](C)C(=O)NCc2cc(C)on2)c2cccnc2)cc1 (stereo partly specified) | inactive
8 | COc1ccccc1Nc1ncnc2c1oc1ccccc12 | inconclusive: 35.5 µM [inhibitor, single point]
9 | Cc1nc2c(c(=O)n1Cc1ccco1)c1nc3ccccc3nc1n2Cc1ccccc1 | inconclusive: 22.4 µM [inhibitor, partial curve]
10 | Cc1ccc(-c2cc(C(F)F)n3ncc(C(=O)N4CCc5ccccc54)c3n2)cc1 | inactive
11 | O=C(N/N=C/c1ccccc1)c1ccc(OCc2ccccc2)cc1 | inconclusive: 17.8 µM [inhibitor, partial curve]
12 | C(=N\Nc1ccccc1)/c1nc2ccccc2s1 | inactive
13 | CCOC(=O)c1c(NC(=O)CSc2cccc[n+]2[O-])sc(C(=O)Nc2ccccc2)c1C | inactive
14 | COc1ccc(-c2nsc(SCC(=O)NCC3CCCO3)n2)cc1 (stereo unspecified) | inconclusive: 39.8 µM [inhibitor, single point]
15 | O=S(=O)(NCc1ccccc1)c1ccc(S(=O)(=O)N2CCCC2)cc1 | inconclusive: 28.2 µM [inhibitor, single point]
16 | CCOC(=O)c1cc2c(C)n(-c3ccc(C)cc3)c(C)c2ccc1=O | inactive
17 | Cc1cc(C)nc(NS(=O)(=O)c2ccc(N3Cc4ccccc4C3=O)cc2)n1 | inconclusive: 28.2 µM [inhibitor, partial curve]
18 | O=C(O)c1cc(-c2ccc(/C=C3\NC(=O)N(c4ccccc4)C3=O)o2)ccc1Cl | inconclusive: 39.8 µM [inhibitor, single point]
19 | Cc1cc(NC2CCCCC2)nc(-c2ccccc2O)n1 | inactive
20 | CC1=Nc2ccccc2/C1=C\c1nc(-c2ccc(F)cc2)oc1O | inconclusive: 28.2 µM [inhibitor, single point]
21 | O=C(Nc1nc(-c2ccccn2)cs1)c1ncc(Cl)c(Cl)c1Cl | inactive
22 | Cc1sc(-n2c(C)cc(/C=N/n3cnnc3)c2C)c(C#N)c1C | inactive
23 | COC(=O)C1=C(C)NC2=C(C(=O)CCC2)C1c1cccs1 (stereo unspecified) | inconclusive: 35.5 µM [inhibitor, single point]
24 | COc1ccc2cccc(N3CCN(CCNC(=O)c4ccc(F)cc4)CC3)c2c1 | inconclusive: 35.5 µM [inhibitor, partial curve]

Row | Structure (SMILES) | Potency
25 | CC1Cc2ccccc2N1C(=O)C1CCCN(S(=O)(=O)c2cccc3nsnc23)C1 (stereo unspecified) | inactive
26 | O=C(NCCCn1ccnc1)C(=O)NC1CCCCC1 | inactive
27 | Cc1sc2nc(-c3cccnc3)[nH]c(=O)c2c1-c1ccccc1 | inconclusive: 31.6 µM [inhibitor, partial curve]
28 | COC(=O)c1ccc(-c2ccc(/C=N/NC(=O)Cc3nnc(N)s3)o2)cc1 | inconclusive: 28.2 µM [inhibitor, partial curve]
29 | Cc1cccn2c(=O)c3cc(C(=O)NCCCn4ccnc4)n(C)c3nc12 | inconclusive: 28.2 µM [inhibitor, partial curve]
30 | Cc1ccc(-c2cc3cccc[n+]3cc2-c2ccc(C)cc2)cc1 | inconclusive: 35.5 µM [inhibitor, single point]
31 | COc1ccc(-c2[nH]ncc2CN2CCCC(C(=O)c3cccc(OC)c3)C2)cc1 (stereo unspecified) | inactive
32 | COCC(=O)N1CCCN(c2nc3c(C)cccc3cc2C#N)CC1 | inconclusive: 28.2 µM [inhibitor, partial curve]
33 | O=C(O)CCn1c(SCc2ccccc2)nc2ccccc21 | inactive
34 | Cc1ccccc1-c1n[nH]c(=S)o1 | inconclusive: 28.2 µM [inhibitor, partial curve]
35 | O=C1CN(c2nc3nonc3nc2N2CCCCC2)CCN1 | inconclusive: 39.8 µM [inhibitor, single point]
36 | Cc1ccc(-n2[nH]c(C)c(/C=N/c3cccc(C)n3)c2=O)cc1 | inconclusive: 35.5 µM [inhibitor, single point]
37 | Cc1cccc(Cn2ccc(NC(=O)c3ccc4c(c3)OCO4)n2)c1 | inactive
38 | COc1ccc2[nH]c3c(=O)n4c(nc3c2c1)SCCC4 | inconclusive: 31.6 µM [inhibitor, partial curve]
39 | Cc1ccc(N2C=Nc3ccc(C)c4nc(C)cc2c34)cc1 | inconclusive: 28.2 µM [inhibitor, partial curve]
40 | CNC(=O)c1ccc(-c2ccc(Cl)c(Cl)c2)s1 | inconclusive: 31.6 µM [inhibitor, single point]
41 | O=C(Nc1ccc2c(c1)OCO2)[C@@H]1[C@@H]2C(=O)N(C3CCCCC3)C(=O)[C@@H]2C2c3ccccc3C=CN21 (stereo partly specified) | inconclusive: 17.8 µM [inhibitor, single point]
42 | CCN1CCCC1CNC(=O)c1ccc(Sc2ccc(F)cc2)c([N+](=O)[O-])c1 (stereo unspecified) | inconclusive: 0.0501 µM [inhibitor, partial curve, poor fit]
43 | COc1ccc(NCc2cc3cc(OC)ccc3[nH]c2=O)cc1 | inconclusive: 20 µM [inhibitor, partial curve]
44 | Cc1cc(C)c2[nH]c(=O)c(CN(CC3CCCO3)C(=O)C3CCCO3)cc2c1 (stereo unspecified) | inconclusive: 25.1 µM [inhibitor, partial curve]
45 | CCOC(=O)c1sc2nc(NC(=O)C(C)(C)C)sc2c1C | inconclusive: 35.5 µM [inhibitor, single point]
46 | CCOC(=O)c1ccc(N2C(=O)C(O)=C(C(C)=O)C2c2ccccc2)cc1 (stereo unspecified) | inconclusive: 28.2 µM [inhibitor, single point]
47 | COc1ccc(-c2ccc(C)cc2)cc1[C@H]1[C@@H]2C=CCC[C@@]2(C)C(=O)N1Cc1ccccc1 | inconclusive: 39.8 µM [inhibitor, single point]
48 | O=S(=O)(Nc1ccccn1)c1ccc(Oc2ccccc2)cc1 | inconclusive: 39.8 µM [inhibitor, single point]

Row | Structure (SMILES) | Potency
49 | O=[N+]([O-])c1ccc(Nc2nc(N/N=C/c3cccc(F)c3)nc(N3CCCC3)n2)cc1 | inactive
50 | Cc1ccc(C)n1-c1ccc(N2CCOCC2)nc1 | inconclusive: 28.2 µM [inhibitor, partial curve]
51 | COc1cc(NC(=O)Nc2ccc3c(c2)OCO3)cc(OC)c1OC | inactive
52 | CCCC(=O)Nc1sc(C)c(C)c1C#N | inactive
53 | c1csc(-c2nc3nc4ccccc4nc3n2Cc2ccc3c(c2)OCO3)c1 | inconclusive: 28.2 µM [inhibitor, partial curve]
54 | Cc1c(=O)n(OCc2ccccc2F)c2ccccc2[n+]1[O-] | inconclusive: 28.2 µM [inhibitor, single point]
55 | COc1cc2nc3c4ccccc4n(CC#N)c3nc2cc1OC | inconclusive: 3.16 µM [inhibitor, partial curve]
56 | CCc1nnc(NC(=O)Cc2c[nH]c3ccccc23)s1 | inactive
57 | CCOC(=O)C1(Cc2cccc(Cl)c2)CCCN(CCO)C1 (stereo unspecified) | inactive
58 | COc1ccc(NC(=O)COC(=O)c2ccc([N+](=O)[O-])o2)cc1Cl | inactive
59 | O=C(Nc1ccccc1-c1ccccc1NC(=O)c1ccco1)c1ccco1 | inactive
60 | O=C1/C(=C\c2ccco2)SC(=S)N1Cc1ccccc1 | inactive
61 | COc1ccc(C(=O)n2nc(-c3ccco3)nc2N)cc1OC | inactive
62 | FC(F)(F)c1cc(-c2ccc3c(c2)OCO3)nc(NCc2ccco2)n1 | inconclusive: 35.5 µM [inhibitor, single point]
63 | CCn1c(CN2CCN(c3cccc(C)c3C)CC2)n[nH]c1=S | inactive
64 | Cc1ccc2c(c1)COc1c3ccc(C(=O)NCC4CC4)cc3nn1-2 | inconclusive: 28.2 µM [inhibitor, partial curve]
65 | Cc1ccc(NC(=O)CN2CCC(Cc3ccccc3)CC2)cc1S(=O)(=O)N(C)C | inconclusive: 31.6 µM [inhibitor, single point]
66 | CCn1c(SCC(=O)c2ccc(NS(=O)(=O)c3ccccc3)cc2)nnc1-c1cccs1 | inconclusive: 39.8 µM [inhibitor, single point]
67 | COc1ccc2[nH]c(=O)c(CN(C3CCCCC3)C(c3nnnn3Cc3ccco3)C(C)C)cc2c1 (stereo unspecified) | inconclusive: 28.2 µM [inhibitor, partial curve]
68 | CC(=O)C1=C(C)NC(SCC(N)=O)=C(C#N)C1c1cccs1 (stereo unspecified) | inconclusive: 39.8 µM [inhibitor, single point]
69 | CCCCn1nc2cc(C(=O)NCc3cc(C(F)(F)F)cc(C(F)(F)F)c3)ccc2c1OCC | inconclusive: 28.2 µM [inhibitor, partial curve]
70 | CCCNC(=O)COC(=O)/C(C#N)=C/c1cc(C)n(CCC)c1C | inconclusive: 35.5 µM [inhibitor, single point]
71 | CCCCNC(=O)CCCCCn1c(=O)[nH]c2cc(OC)c(OC)cc2c1=O | inconclusive: 3.98 µM [inhibitor, full curve]
